Experimental findings from paper PMC12820563, “FoxP3 forms a head-to-head dimer in vivo and stabilizes its multimerization on adjacent microsatellites” are described below.

This is one part of the list.

The target in this experiment is T1, MBP-FoxP1dN (Mus musculus, UniProt P58462 326-579).
T1 sequence: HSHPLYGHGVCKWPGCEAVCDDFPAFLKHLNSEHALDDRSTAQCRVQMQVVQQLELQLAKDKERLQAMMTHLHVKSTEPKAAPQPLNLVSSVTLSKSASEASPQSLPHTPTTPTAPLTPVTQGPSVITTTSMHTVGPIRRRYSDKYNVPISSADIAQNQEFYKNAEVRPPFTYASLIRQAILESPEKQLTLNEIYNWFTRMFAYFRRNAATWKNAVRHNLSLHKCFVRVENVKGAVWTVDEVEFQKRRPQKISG
The experiment is described as follows: PD-seq (MBP pull-down with sequencing); 20 mM Tris-HCl pH 7.5, 100 mM NaCl, 1.5 mM MgCl2, 0.4 uM protein, 0.1 uM dsDNA library, 30 min, room temperature, amylose pull-down; high values mean tight binding. As to conditions: protein: recombinant; tags: His6-MBP; chain copies: 2; dsDNA, one strand shown. The method, boiled down:
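In Tris pH 7.5 buffer with NaCl and MgCl2, 0.4 µM His6-MBP-tagged mouse FoxP3 or FoxP1 fragment lacking the N-terminus, from E. coli, met 0.1 µM Klenow-filled double-stranded degenerate DNA library for 30 min at room temperature. Three washes on amylose resin followed capture of the complexes, then proteinase K release of DNA, PCR barcoding and Illumina sequencing. Binding is taken as pooled-replicate reads-per-million enrichment of pull-down relative to input.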
For the sequence “GATGATTGTTCTCCCAGCTGATGAATTCAGTTCGTCGAGTAAACAAATTTTCCTAATCTTTCTGTTCAAGCGCCATCTAC”, the binding signal is 0.848 RPM ratio (pull-down/input). Under “GATGATTGTTCTCCCAGCTGATGAATTCTAGATATCGAGTAAACAAATTTTCCTAATCTTTCTGTTCAAGCGCCATCTAC” stands 0.945 RPM ratio (pull-down/input). As to “GATGATTGTTCTCCCAGCTGATGAATTGTTTCGTTCGAGTAAACAAATTTTCCTAATCTTTCTGTTCAAGCGCCATCTAC”, the binding signal is 1.27 RPM ratio (pull-down/input). The figure for “GATGATTGTTCTCCCAGCTGATGAATTAGTTGACTCGAGTAAACAAATTTTCCTAATCTTTCTGTTCAAGCGCCATCTAC” is 0.998 RPM ratio (pull-down/input); for “GATGATTGTTCTCCCAGCTGATGAATTGAGCCATTCGAGTAAACAAATTTTCCTAATCTTTCTGTTCAAGCGCCATCTAC” it is 0.805 RPM ratio (pull-down/input). With “GATGATTGTTCTCCCAGCTGATGAATTCATAACCTCGAGTAAACAAATTTTCCTAATCTTTCTGTTCAAGCGCCATCTAC”, the binding signal was 0.896 RPM ratio (pull-down/input).

With “GATGATTGTTCTCCCAGCTGATGAATTCTTGTTGTCGAGTAAACAAATTTTCCTAATCTTTCTGTTCAAGCGCCATCTAC”, the binding signal was 2.6 RPM ratio (pull-down/input).

Regarding “GATGATTGTTCTCCCAGCTGATGAATTGATGACCTCGAGTAAACAAATTTTCCTAATCTTTCTGTTCAAGCGCCATCTAC”, the binding signal was 1.02 RPM ratio (pull-down/input). Consider “GATGATTGTTCTCCCAGCTGATGAATTAGTCTGATCGAGTAAACAAATTTTCCTAATCTTTCTGTTCAAGCGCCATCTAC”, for which the binding signal was 0.895 RPM ratio (pull-down/input).

As to “GATGATTGTTCTCCCAGCTGATGAATTGTGAACTTCGAGTAAACAAATTTTCCTAATCTTTCTGTTCAAGCGCCATCTAC”, the binding signal was 1.01 RPM ratio (pull-down/input). On to “GATGATTGTTCTCCCAGCTGATGAATTTCCGTACTCGAGTAAACAAATTTTCCTAATCTTTCTGTTCAAGCGCCATCTAC”, for which the binding signal was 0.85 RPM ratio (pull-down/input).

Consider “GATGATTGTTCTCCCAGCTGATGAATTAAAGAATTCGAGTAAACAAATTTTCCTAATCTTTCTGTTCAAGCGCCATCTAC”, for which the binding signal is 0.892 RPM ratio (pull-down/input). Turning to “GATGATTGTTCTCCCAGCTGATGAATTTCAGGTTTCGAGTAAACAAATTTTCCTAATCTTTCTGTTCAAGCGCCATCTAC”, the binding signal was 0.841 RPM ratio (pull-down/input).

With “GATGATTGTTCTCCCAGCTGATGAATTCGATCAATCGAGTAAACAAATTTTCCTAATCTTTCTGTTCAAGCGCCATCTAC”, the binding signal was 1.05 RPM ratio (pull-down/input). Take “GATGATTGTTCTCCCAGCTGATGAATTTTGAGAATCGAGTAAACAAATTTTCCTAATCTTTCTGTTCAAGCGCCATCTAC”: the binding signal was 0.914 RPM ratio (pull-down/input).

“GATGATTGTTCTCCCAGCTGATGAATTGGCCGTGTCGAGTAAACAAATTTTCCTAATCTTTCTGTTCAAGCGCCATCTAC”: the binding signal is 0.836 RPM ratio (pull-down/input).

As for “GATGATTGTTCTCCCAGCTGATGAATTCCGGATGTCGAGTAAACAAATTTTCCTAATCTTTCTGTTCAAGCGCCATCTAC”, the binding signal was 0.78 RPM ratio (pull-down/input). The figure for “GATGATTGTTCTCCCAGCTGATGAATTGGCTATGTCGAGTAAACAAATTTTCCTAATCTTTCTGTTCAAGCGCCATCTAC” is 0.854 RPM ratio (pull-down/input).

As for “GATGATTGTTCTCCCAGCTGATGAATTCTTGAAATCGAGTAAACAAATTTTCCTAATCTTTCTGTTCAAGCGCCATCTAC”, the binding signal is 1.04 RPM ratio (pull-down/input). The figure for “GATGATTGTTCTCCCAGCTGATGAATTCTGTACATCGAGTAAACAAATTTTCCTAATCTTTCTGTTCAAGCGCCATCTAC” is 1.09 RPM ratio (pull-down/input); for “GATGATTGTTCTCCCAGCTGATGAATTGTTGAGATCGAGTAAACAAATTTTCCTAATCTTTCTGTTCAAGCGCCATCTAC” it is 1.25 RPM ratio (pull-down/input); for “GATGATTGTTCTCCCAGCTGATGAATTTAAGTTTTCGAGTAAACAAATTTTCCTAATCTTTCTGTTCAAGCGCCATCTAC” it is 1.16 RPM ratio (pull-down/input). The figure for “GATGATTGTTCTCCCAGCTGATGAATTTTACTTTTCGAGTAAACAAATTTTCCTAATCTTTCTGTTCAAGCGCCATCTAC” is 0.937 RPM ratio (pull-down/input); for “GATGATTGTTCTCCCAGCTGATGAATTGAATTGGTCGAGTAAACAAATTTTCCTAATCTTTCTGTTCAAGCGCCATCTAC” it is 0.837 RPM ratio (pull-down/input); for “GATGATTGTTCTCCCAGCTGATGAATTGCGCGAGTCGAGTAAACAAATTTTCCTAATCTTTCTGTTCAAGCGCCATCTAC” it is 0.96 RPM ratio (pull-down/input). On to “GATGATTGTTCTCCCAGCTGATGAATTTAACTAATCGAGTAAACAAATTTTCCTAATCTTTCTGTTCAAGCGCCATCTAC”, for which the binding signal was 1.03 RPM ratio (pull-down/input).

As to “GATGATTGTTCTCCCAGCTGATGAATTCGTGAACTCGAGTAAACAAATTTTCCTAATCTTTCTGTTCAAGCGCCATCTAC”, the binding signal was 0.851 RPM ratio (pull-down/input). Take “GATGATTGTTCTCCCAGCTGATGAATTAGTTCACTCGAGTAAACAAATTTTCCTAATCTTTCTGTTCAAGCGCCATCTAC”: the binding signal is 0.966 RPM ratio (pull-down/input). Regarding “GATGATTGTTCTCCCAGCTGATGAATTAATGGTGTCGAGTAAACAAATTTTCCTAATCTTTCTGTTCAAGCGCCATCTAC”, the binding signal is 1 RPM ratio (pull-down/input). The figure for “GATGATTGTTCTCCCAGCTGATGAATTGACAATTTCGAGTAAACAAATTTTCCTAATCTTTCTGTTCAAGCGCCATCTAC” is 1.39 RPM ratio (pull-down/input). On to “GATGATTGTTCTCCCAGCTGATGAATTGCTTGCTTCGAGTAAACAAATTTTCCTAATCTTTCTGTTCAAGCGCCATCTAC”, for which the binding signal was 1.11 RPM ratio (pull-down/input). The figure for “GATGATTGTTCTCCCAGCTGATGAATTACCTCATTCGAGTAAACAAATTTTCCTAATCTTTCTGTTCAAGCGCCATCTAC” is 1.01 RPM ratio (pull-down/input).
